Reference: PubChem BioAssay AID360 (National Center for Advancing Translational Sciences (NCATS), 2006)
Screen size: about 48,000 compounds; about 550 (1.1%) were called active. Another 4% or so got no clear call; they are omitted. No stated cut-off is given here; in the data, active means potency below about 15 µM; inconclusive means mostly about 16 µM to 33 µM; inactive means weaker than that. This is one part of the list.

Biological target: Lysosomal acid glucosylceramidase (Homo sapiens) (UniProt P04062)
Assay: Glucocerebrosidase;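 further: the screen sought inhibitors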
Conditions: purified enzyme, resorufin glucoside fluorescence (screen aimed at inhibitors), 20 min
Procedure, shortened: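 Normal human glucocerebrosidase (0.2 nM final) was assayed with resorufin β-D-glucopyranoside (30 uM final) in 50mM citric acid/KH2PO4, 10mM sodium taurocholate, 0.01% tween-20, pH 5.9. Compounds were titrated; fluorescence (Ex 548, Em 600) read after 20 min at RT.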
Potency means the concentration at half of the fitted maximal effect.

Sequence of UniProt P04062 (P04062 whole entry, looked up): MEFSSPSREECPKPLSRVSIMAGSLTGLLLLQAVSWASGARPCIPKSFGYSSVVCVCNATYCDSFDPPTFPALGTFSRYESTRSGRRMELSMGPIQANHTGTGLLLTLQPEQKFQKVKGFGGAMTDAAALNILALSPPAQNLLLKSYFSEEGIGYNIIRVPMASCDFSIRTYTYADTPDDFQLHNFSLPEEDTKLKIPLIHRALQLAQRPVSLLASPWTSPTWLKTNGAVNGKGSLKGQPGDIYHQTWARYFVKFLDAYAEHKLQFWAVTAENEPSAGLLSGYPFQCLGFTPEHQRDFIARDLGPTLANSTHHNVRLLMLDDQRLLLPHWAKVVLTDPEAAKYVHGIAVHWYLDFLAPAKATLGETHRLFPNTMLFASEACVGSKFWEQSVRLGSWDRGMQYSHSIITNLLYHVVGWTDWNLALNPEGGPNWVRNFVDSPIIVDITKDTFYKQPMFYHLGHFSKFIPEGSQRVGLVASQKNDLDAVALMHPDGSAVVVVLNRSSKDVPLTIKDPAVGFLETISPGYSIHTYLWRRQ

Potency, inactive:
CC(C)(C)c1ccc(NC(=O)CC2(C(F)(F)F)OCCO2)cc1 > 76.9 µM, O=c1cc(N2CCc3ccccc3C2)[nH]c(=O)n1-c1ccc(Cl)cc1 > 76.9 µM, COc1cccc2[nH]c3c(N4CCCC(C)C4)ncnc3c12 (configuration not stated) > 76.9 µM, COC(=O)c1cc(Br)c(=O)n(CCN2CCCCC2)c1 > 76.9 µM, CCc1nc2ccccc2n(CCOCCOCCn2c(=O)c(CC)nc3ccccc32)c1=O > 76.9 µM, Oc1[nH]c2ccccc2c1C1=NCCCC1 > 76.9 µM, C=CCN1CC(c2nc3ccccc3n2Cc2ccccc2)CC1=O (configuration not stated) > 76.9 µM, CN(C)C(=O)Cn1cnc2c(cnn2-c2ccccc2Cl)c1=O > 76.9 µM, COc1ccc(C2C(C(=O)Nc3ccccc3)=C(C)Nc3nc(CCCO)nn32)cc1 (configuration not stated) > 76.9 µM, CCCCc1ccc(CC(=O)O)cc1 > 76.9 µM, CN(C)c1nc(N)nc(CSc2n[nH]c(-c3ccccc3)n2)n1 > 76.9 µM, N#Cc1nc(COc2ccc(Cl)cc2)oc1N1CCCC1 > 76.9 µM, O=C(c1cnc(N2CCN(c3ncccn3)CC2)c2ccccc12)N1CCN(c2ncccn2)CC1 > 76.9 µM, O=C(c1ccc(F)cc1)C1CCN(C(=O)NCc2ccccc2)CC1 > 76.9 µM, COc1cc(C)ccc1NC(=O)c1ccc(S(=O)(=O)N2CCOCC2)cc1 > 76.9 µM, O=C(COc1ccc(-c2nnco2)cc1)N1CCN(S(=O)(=O)c2ccccc2)CC1 > 76.9 µM, CCOc1ccc(C(=O)Nc2c3c(nn2-c2ccc(F)cc2)CS(=O)C3)cc1 (configuration not stated) > 76.9 µM, COCC(=O)Nc1nnc(-c2cccs2)s1 > 76.9 µM, CN(Cc1cccs1)C(=O)CCc1ccc(S(=O)(=O)N2CCOCC2)cc1 > 76.9 µM, Cc1ccccc1Cn1c(-c2cncs2)nc2ccccc21 > 76.9 µM, COC(=O)C1=C(N)N(c2ccc(F)cc2)C2=C(C(=O)CCC2)C1c1ccc2c(c1)OCO2 (configuration not stated) > 76.9 µM, CC1Cc2ccccc2N1S(=O)(=O)c1ccc2c(c1)n(C)c(=O)c(=O)n2C (configuration not stated) > 76.9 µM, Cn1c(SCC(=O)N2CCCC2)nc2ccccc2c1=O > 76.9 µM, Cc1oc2nc(SCCCC(=O)NCCO)nc(N)c2c1C > 76.9 µM, O=C(CCC(=O)N1CCc2ccccc2C1)N1CCN(S(=O)(=O)c2ccccc2)CC1 > 76.9 µM, CC(CC(=O)NCc1ccccc1)C1CCCO1 (configuration not stated) > 76.9 µM, CCN(CCCNC(=O)CCNC(=O)Cn1ccc2ccccc2c1=O)c1ccccc1 > 76.9 µM, CCC(=O)N1CCc2cc(S(=O)(=O)NC(C(=O)N3CCc4ccccc4C3)C(C)C)ccc21 (configuration not stated) > 76.9 µM, O=C(CN1CCN(c2cccc(Cl)c2)CC1)N1CCCC1 > 76.9 µM, CCOc1ccccc1C(=O)NCC(=O)OCC(=O)N1C(C)CCCC1C (configuration not stated) > 76.9 µM, Cc1cc2n(n1)C(c1sccc1C)Nc1c(C)cccc1-2 (configuration not stated) > 76.9 µM, COc1ccc(NC(=O)N2CCn3c2nc2ccccc23)cc1 > 76.9 µM, Cn1nc(CC(=O)Nc2ccc(N3CCN(C(=O)OC(C)(C)C)CC3)cc2)c2ccccc2c1=O > 76.9 µM, CC1CCCC(C)N1C(=O)COC(=O)c1ccc[nH]c1=O (configuration not stated) > 76.9 µM, CCCCOC(=O)NCN1C(=O)C2C3C=CC(C3)C2C1=O (configuration not stated) > 76.9 µM, CCn1c(COc2ccccc2C)nnc1SCC(=O)N1CCCCC1 > 76.9 µM, O=C(NCCCN1CCCC1=O)c1cccnc1 > 76.9 µM, CCOC(=O)c1cc2c(=O)n3cccc(C)c3nc2n(CCOC)c1=NC(=O)c1ccncc1 > 76.9 µM, COc1ccc(C(=O)Nc2ccc(S(=O)(=O)Nc3onc(C)c3C)cc2)cc1, O=C(NC1(C(F)(F)F)N=C2SCCN2C1=O)C1CCCCC1 (configuration not stated) > 76.9 µM, O=S(=O)(NC1CC1)c1ccc(S(=O)(=O)N2CCCC3(CCCCC3)C2)cc1 > 76.9 µM, O=C1OC(Nc2nccs2)c2ccccc21 (configuration not stated) > 76.9 µM, COc1cccc(Oc2coc3c(CN4CCOCC4)c(O)ccc3c2=O)c1 > 76.9 µM, CCN1CCN(CCNC(=O)c2ccc(CS(=O)(=O)c3ccccc3C)o2)CC1 > 76.9 µM, Cn1c(=O)[nH]c(=O)c2c1nc(Br)n2CCCO > 76.9 µM, CCN(CC)CCNC(=O)CCn1c(=S)[nH]c2cc3c(cc2c1=O)OCO3 > 76.9 µM, Cc1cc(C)c(C)c(S(=O)(=O)NCc2cccnc2)c1C > 76.9 µM, O=C(NCC(=O)N1CCCC1)c1cccs1 > 76.9 µM, Cc1onc(-c2ccccc2)c1C(=O)n1nnc2ccccc21 > 76.9 µM, Cc1cc(NC(=O)Cn2nc(C(F)(F)F)c3c2CCC3)n(-c2ccccc2)n1 > 76.9 µM, CC1(C)Cc2noc(N)c2C(C)(C)N1OC(=O)c1scc2c1OCCO2 > 76.9 µM, CC(=O)c1ccc(OCC(=O)NC2CCS(=O)(=O)C2)cc1 (configuration not stated) > 76.9 µM, Cc1cc2c(cc1C)NC(c1cccnc1)C1=C(CC(C)(C)CC1=O)N2 (configuration not stated) > 76.9 µM, CC(=O)C1=C(O)C(=O)N(CCN2CCOCC2)C1c1ccccc1 (configuration not stated) > 76.9 µM, CN(C(=O)c1ccc(=O)[nH]c1)C1(C(=O)NC2CCCCC2)CCCCC1 > 76.9 µM, CCn1c(=O)cc(SCC(=O)NCC2CCCO2)c2ccccc21 (configuration not stated) > 76.9 µM, O=C(NC1CCCC1)C(c1ccc(N2CCOCC2)cc1)N(Cc1ccccc1)C(=O)c1ccco1 (configuration not stated) > 76.9 µM
